# In PubChem BioAssay AID651820 (National Center for Advancing Translational Sciences (NCATS), 2012):
# The whole screen tested about 340,000 compounds, of which about 12,000 (3.5%) were called active. Inconclusive results, whose numbers are uncertain, are shown with a selection of clear calls. Calls follow the shape of the dose curve; as a rule, active = well fitted inhibition curve with a large enough effect; inconclusive = small, poorly fitted or top-dose-only effect, or another doubt; inactive = no such curve, though single readings can be large or run the other way. Potencies of inconclusive entries are left out as doubtful fits.
# Assay: qHTS Assay for Inhibitors of Hepatitis C Virus (HCV)
# Conditions: Huh7.5.1 HCVcc-Cre (HCVcc is cell-culture hepatitis C virus) infection, luciferase reporter, 44 h; activity change, negative = inhibition: at 41.8 µM (top of the series) unless noted
# How it was run: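 A cell-based infection assay in which seeded cells (1,000 per well) receive test compound after 4 h, are inoculated with HCVcc-Cre at approximately 0.5 moi, and are incubated 44 h before luminescence detection.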
# % is scaled to controls: 0 for no effect and ±100 for the full control effect; potency is read from the fitted curve at half-maximal effect; tags tell the direction and shape of the fitted curve.
SMILES,"activity change, negative = inhibition",Potency
O=C(CCl)c1ccc(Cc2ncc(C(F)(F)F)cc2Cl)s1,inactive: -19.9%,
O=C(NC(N1CCOCC1)C(Cl)(Cl)Cl)c1ccccc1Cl (stereo not given),inactive: 16.7%,
O=C(NNC(=S)NC1CCCCC1)c1ccccc1O,,"inconclusive [inhibitor, single point]"
O=C1CC(=C(c2ccccc2)c2ccccc2)C(=O)N1CCCCN1CCN(c2cccc(Cl)c2)CC1,,active: 11.2 µM
COC12C(COC(N)=O)C3=C(C(=O)C(C)=C(N)C3=O)N1CC1C2N1C (stereo not given),,"inconclusive [inhibitor, partial curve]"
COc1ccc(C2/C=C\CC(OCc3ccccc3)CC(=O)N2Cc2cccc(F)c2)cc1 (stereo not given),inactive: -21.9%,
CCN1CCN(CCCNC(=O)c2cc3c(s2)-c2ccccc2OC3)CC1,,active: 7.08 µM
O=C(Nc1ccc(C(F)(F)F)cc1)C1(c2ccccc2)CC1,inactive: 0.666%,
Cc1c(Cl)ccc2c(C(O)CBr)cc(-c3ccccc3)nc12 (stereo not given),,active: 10 µM
CCCCOc1ccc(C(=O)N/C(=C/C=C/c2ccccc2)C(=O)NC)cc1,,"inconclusive [inhibitor, partial curve]"
C=CCn1c(SCc2c(C)noc2C)nc2sc3c(c2c1=O)CCCCC3,,"inconclusive [inhibitor, single point]"
O=C(c1ccccc1)C(CCC(CN1CCOCC1)C(=O)c1ccccc1)CN1CCOCC1 (stereo not given),,active: 5.62 µM
COc1ccc(CNC(=O)C[C@H]2C[C@H](C(=O)N3CCCCC3)[C@@]3(C)c4[nH]c5cc(-c6ccco6)ccc5c4CCN3C2=O)cc1OC,,"inconclusive [inhibitor, single point]"
CCOC(=O)c1c(C)[nH]c(C(=O)N/N=C/c2cccc(OC)c2)c1C,,active: 22.4 µM
O=C(Nc1cccc(S(=O)(=O)N2CCCCC2)c1)c1ccc2ccccc2n1,,"inconclusive [inhibitor, partial curve]"
C/C(=N/OCC(=O)NCCCCCCNC(=O)CO/N=C(/C)c1cccs1)c1cccs1,,active: 22.4 µM
CCc1ccccc1NC(=O)N1CCCc2ccccc21,inactive: 6.95%,
CC(C)OCCCN(C)C1CCN(S(=O)(=O)c2ccc(-c3cc(C(F)(F)F)no3)s2)CC1,,"inconclusive [inhibitor, partial curve]"
CN(C)c1ccc(-c2nc3cc(N)ccc3o2)cc1,inactive: -23.5%,
Brc1ccc2[nH]c3c(NCc4ccccn4)ncnc3c2c1,inconclusive: -49.6% [inhibitor],
CC(C)Oc1ccc(S(=O)(=O)N2CCCCC2)cc1NC(=O)CN1C(=O)NC(C)(c2ccccc2)C1=O (stereo not given),,"inconclusive [inhibitor, single point]"
CN(c1ccccc1)S(=O)(=O)c1cccc(NC(=O)c2ccncc2)c1,,active: 10 µM
CC(C)=NNC(=O)c1c(O)c2ccccc2[nH]c1=O,inactive: 12.1%,
Nn1c(SC/C=C/c2ccccc2)nnc1-c1ccncc1,inactive: 14.9%,
CCOCC(=O)Nc1cc(OC)c(Cl)cc1OC,,"inconclusive [inhibitor, single point]"

SMILES,"activity change, negative = inhibition",Potency
Cc1nn2cc(-c3cccc(Cl)c3)cnc2c1Cl,inactive: 0.376%,
CCOc1ccc(N(C)Cc2cc(=O)oc3ccc(OCC)cc23)cc1,,"inconclusive [inhibitor, single point]"
CCCCn1c(CCl)nc2cc(S(=O)(=O)N3CCOCC3)ccc21,,"inconclusive [inhibitor, single point]"
CC1CCCCC12NC(=O)N(CC(=O)NCCc1ccc(S(N)(=O)=O)cc1)C2=O (stereo not given),inactive: 4.91%,
Cc1ccc2nc(SC(C)C(=O)Nc3cccc([N+](=O)[O-])c3)[nH]c2c1 (stereo not given),,"inconclusive [inhibitor, single point]"
COc1cnc(-c2ccccn2)nc1Oc1ccccc1,inactive: -4.1%,
CCOC(=O)c1c(C)n(CCOC)c2ccc(O)cc12,,"inconclusive [inhibitor, partial curve, poor fit]"
O=C(NCc1ccco1)C12CC3CC(CC(C3)C1)C2,,"inconclusive [inhibitor, single point]"
CCOc1ccc(-n2c(-c3cccs3)nc3ccccc3c2=O)cc1,,"inconclusive [inhibitor, single point]"
CCOc1cc(Cl)c(S(=O)(=O)NCc2cccnc2)cc1Cl,,"inconclusive [inhibitor, partial curve]"
CCCCNC(=O)CSc1nnc(-c2ccco2)n1C,inactive: 11.8%,
CCOC(=O)c1c(-c2ccc(C)o2)csc1NC(=O)CSc1ncn[nH]1,,"inconclusive [inhibitor, single point]"
COc1ccc(C(CC(=O)c2ccc(C)cc2)C(C#N)C#N)cc1OC (stereo not given),,"inconclusive [inhibitor, single point]"
O=C(CNC(=O)c1ccc(Br)o1)Nc1cccc(S(=O)(=O)N2CCCC2)c1,inconclusive: -83.5% [inhibitor],
CCN(CC)c1ccc(C(=S)NC2CCCCC2)cc1,,"inconclusive [inhibitor, single point]"
O=C(NCCc1ccc(Cl)cc1)Nc1ccc(F)cc1,inactive: 4.92%,
NC(=O)c1cc2c(s1)-c1cc(Cl)ccc1SC2,,"inconclusive [inhibitor, single point]"
S=C(Nc1ccc(Cl)cc1Cl)N1CCN(c2ccccn2)CC1,,"inconclusive [inhibitor, single point]"
CCOC(=O)c1c(CN2CCCCC2)n(C)c2cc(Br)c(OC)cc12,,"inconclusive [inhibitor, partial curve]"
CCc1noc(C)c1C(=O)NC1CCCc2c1cnn2-c1ccc(C(C)(C)C)cc1 (stereo not given),,"inconclusive [inhibitor, partial curve]"
O=C(c1cccc(S(=O)(=O)N2CCOCC2)c1)N(CCc1ccccc1)Cc1ccccc1,,"inconclusive [inhibitor, single point]"
Cc1nc2ccccc2n1CC(O)COC1CCCCC1 (stereo not given),,"inconclusive [inhibitor, partial curve]"
O=S1(=O)CCN(c2ccccc2CC(c2c[nH]c3ccccc23)c2c[nH]c3ccccc23)CC1,,"inconclusive [inhibitor, single point]"
CC(C)NCCCCOc1ccc(Br)cc1Cl,,active: 10 µM
CC1(C)CC2CC(C)(CN2Cc2cccc([N+](=O)[O-])c2)C1 (stereo not given),inactive: 13.6%,

SMILES,"activity change, negative = inhibition",Potency
COc1ccc(NS(=O)(=O)c2ccc(NC(=S)NC(=O)/C=C/c3ccccc3)cc2)nn1,inactive: 3.17%,
Cc1nc(SCc2ccc(F)cc2)n[nH]1,,"inconclusive [inhibitor, single point]"
COc1ccc(C2CC(c3ccccc3)=NN2C(=O)COC(=O)/C=C/c2ccc(O)c(OC)c2)cc1 (stereo not given),,"inconclusive [inhibitor, single point]"
COC(=O)/C(C#N)=C\c1c(OC)[nH]c2ccccc12,,active: 3.98 µM
COC(=O)c1ccccc1NC(=O)N1CCN(c2ccc(F)cc2)CC1,inactive: -28.2%,
Nc1ccc2oc(-c3cccc4ccccc34)nc2c1,,"inconclusive [inhibitor, partial curve, poor fit]"
CSc1ccc(OC2CCN(Cc3ccccc3)CC2)cc1,,"inconclusive [inhibitor, single point]"
COc1cc(/C=N/NC(=O)c2ccc(Cl)cc2)ccc1OCC(=O)N1CC(C)OC(C)C1 (stereo not given),inactive: 17.4%,
Cc1cc(C)nc(Sc2nc(C)nc3c2oc2ccccc23)n1,,"inconclusive [inhibitor, partial curve]"
O=c1[nH]c(Nc2ccccn2)cc2ccccc12,,"inconclusive [inhibitor, single point]"
CCOC(=O)N1CCC(NC(=O)CSCc2nc(-c3sccc3C)oc2C)CC1,,"inconclusive [inhibitor, partial curve]"
Cc1cc(Cl)c(OCCCN(C)C)c(Br)c1,inactive: -22.7%,
COc1ccc(-c2noc(CNC(=O)c3ccc4c(c3)OCO4)n2)cc1OC,,"inconclusive [inhibitor, full curve]"
COc1ccc(N2CCN(c3ncnc4c3[nH]c3ccccc34)CC2)cc1,,active: 5.62 µM
CN1C(=O)N(CC(=O)N2CCN(S(=O)(=O)c3ccc(Cl)s3)CC2)C(=O)C12CCCCC2,inactive: 2.67%,
CCOC(=O)N1CCN(C(=O)c2cc(-c3ccc(OCC)cc3)nc3ccccc23)CC1,,"inconclusive [inhibitor, full curve]"
O=C(CSc1nccc(=O)[nH]1)NC1CCCc2ccccc21 (stereo not given),inactive: 41.5%,
O=C(Nc1cc(Cl)ccc1N1CCOCC1)C1=COCCO1,,"inconclusive [inhibitor, partial curve]"
Cc1csc(Nc2ccc(Cl)cc2)[n+]1-c1ccc(Cl)cc1,,"inconclusive [inhibitor, single point]"
CN1CCN(C(=O)/C(=C/c2ccccc2)c2ccccc2)CC1,inactive: 9.84%,
O=C(Nc1cccc(F)c1)N(Cc1ccc(Cl)cc1)CC(O)C(F)(F)F (stereo not given),,active: 11.2 µM
O=C(OCc1cnc(Cl)s1)c1cccc(Cl)c1,,"inconclusive [inhibitor, single point]"
CC(=O)c1ccc(NC(=O)CN2C(=O)NC(C)(C3CCCCC3)C2=O)cc1 (stereo not given),inactive: -4.71%,
CCN(CC)CCOC(=O)C(O)(c1ccccc1)c1ccccc1,,inactive
O=C(NCCS(=O)(=O)N1CCN(c2ccccc2)CC1)C1CC(=O)N(c2ccc(F)cc2)C1 (stereo not given),,"inconclusive [inhibitor, full curve, poor fit]"
